Values joined by “and” are separate entries in the source; they are usually repeats but may differ in a detail not shown here. Equal values may be shown once. In all, about 420,000 compounds went through this assay and about 64,000 (15%) were called active. Inconclusive results, whose numbers are uncertain, are shown with a selection of clear calls. The call rests on the fitted dose curve; in most records, active means well fitted inhibition curve with a large enough effect; inconclusive means small, poorly fitted or top-dose-only effect; inactive means flat fitted curve, though single readings scatter. Potencies of inconclusive entries are left out as doubtful fits.
Assay: qHTS for Inhibitors of human tyrosyl-DNA phosphodiesterase 1 (TDP1): qHTS in cells in absence of CPT; further: nearly all actives have a fitted effect of over 55% in size
Settings: DT40 Tdp1-/- hTDP1 cells, no CPT, ATP luminescence, 48 h; activity change, negative = growth inhibition: at 46.2 µM (top of the series) unless noted
Procedure, shortened: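 Compound effects on proliferation are scored in DT40 Tdp1-/-;hTDP1 cells in the absence of CPT. ATP levels (CellTiter-Glo luminescence) are recorded after a ≥48 hr, 37 °C incubation.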
On the % scale 0 is the no-effect control and ±100 the full control effect; potency means the concentration at half of the fitted maximal effect; tags describe the fitted curve by direction and shape.

Row | Structure (SMILES) | Potency | activity change, negative = growth inhibition
1 | CSc1cccc(-c2nnc(NC(=O)c3ccc4c(c3)OCCO4)o2)c1 | inconclusive [inhibitor, single point] | –
2 | COc1cc2c(cc1Cl)C(=O)C(F)(c1ccccc1)C(=O)N2 (stereo unspecified) | inconclusive [inhibitor, single point] | –
3 | O=C(COc1ccccc1Br)NC(=O)NC1CCCC1 | – | inactive: 4.4%
4 | COc1ccccc1/C=C/C(=O)N1CCN(S(=O)(=O)c2cc(C)ccc2C)CC1 | inconclusive [inhibitor, single point] | –
5 | COc1ccccc1N1CCN(C(=O)C2CCN(C(=O)c3ccccc3Cl)CC2)CC1 | – | inactive: -24.6%
6 | Nc1c(N(CCC2=CCCCC2)C(=O)COc2ccc(F)cc2)c(=O)[nH]c(=O)n1Cc1ccccc1 | inconclusive [inhibitor, single point] | –
7 | COc1ccc(CNc2cccc3[nH]c(C(F)(F)F)nc23)cc1 | inconclusive [inhibitor, single point] | –
8 | O=C(NCCc1ccc(Cl)cc1)c1cc(-c2ccncc2)nc2ccccc12 | inconclusive [inhibitor, single point] | –
9 | O=C1CSC(c2ccccc2)N1Nc1nc(N2CCOCC2)nc(N2CCOCC2)n1 (stereo unspecified) | inconclusive [inhibitor, single point] | –
10 | O=C(CCc1cn(Cc2ccccc2F)c2ccccc12)NCc1ccc(Cl)cc1 | inconclusive [inhibitor, single point] | –
11 | CCCC1=Nc2cc(C(=O)NCCCN3CCN(C)CC3)ccc2Sc2ccccc21 | inconclusive [inhibitor, single point] | –
12 | c1ccc2nc(N3CCCC3)c(N3CCCCC3)nc2c1 | inconclusive [inhibitor, partial curve] | –
13 | Cc1ccccc1CNC(=O)c1ccc(Cn2c(SCc3cccc(F)c3)nc3cccnc32)cc1 | active: 14.6 µM | –
14 | CCC(=O)N(CC(=O)Nc1sc(C)c(C)c1C(N)=O)C1CCCCC1 | inconclusive [inhibitor, single point] | –
15 | CC1CCC(NC(=O)CCCn2sc3ccccc3c2=O)CC1 (stereo unspecified) | inconclusive [inhibitor, single point] | –
16 | COc1ccc2c(c1)C(SCC(=O)NCCc1ccccc1)CC(C)(C)O2 (stereo unspecified) | inconclusive [inhibitor, single point] | –
17 | CCc1ccc2c(c1)C(=O)c1ccccc1C2=O | – | inactive: 7.02%
18 | COc1ccc(-c2ccc(NS(=O)(=O)c3cccc(Cl)c3)cc2)nn1 | inconclusive [inhibitor, single point] | –
19 | CCN(C(=O)CSc1nnc(Cn2nnc3ccccc32)o1)c1nc(C)cs1 | inconclusive [inhibitor, single point] | –
20 | O=C(Nc1ccncc1Cl)c1ccncc1 | – | inactive: 8.79%
21 | Nc1ccc(C(=O)N/N=C/c2cn(Cc3cccc(F)c3)c3ccccc23)cc1 | inconclusive [inhibitor, partial curve] | –

Row | Structure (SMILES) | Potency | activity change, negative = growth inhibition
22 | O=C(/C=C/c1ccccc1)NC(=S)Nc1ccccc1 | inconclusive [inhibitor, partial curve] | –
23 | O=Cc1ccc(-c2ccccc2OC(F)(F)F)o1 | – | inconclusive: -31.7% [inhibitor]
24 | COc1ccc(S[C@@H](CCN2CC[C@H](NC(=O)OCc3ccccc3)CCC2=O)c2ccccc2)cc1 | active: 11.2 µM and active: 23.1 µM | –
25 | Cc1noc(C)c1S(=O)(=O)N(C)C[C@H]1Oc2c(cccc2N(C)C)C(=O)N([C@H](C)CO)C[C@@H]1C | inconclusive [inhibitor, single point] | –
26 | CN1CCN(CCCC(=O)c2ccc(F)cc2)CC1 | – | inactive: 16.6%
27 | COc1c(O)ccc(/C=C(\C#N)c2nc3ccccc3[nH]2)c1[N+](=O)[O-] | inconclusive [inhibitor, single point] | –
28 | COc1ccc(C2CC(c3ccc4ccccc4c3)=NN2C(=O)COC(=O)C2CCC(=O)N2)cc1 (stereo unspecified) | inconclusive [inhibitor, single point] | –
29 | COc1ccc(N2CCN(C(=O)c3cc(S(=O)(=O)N4CCCCCC4)cn3C)CC2)cc1 | inconclusive [inhibitor, single point] | –
30 | Cc1ccnc(NC(=O)c2ccc(S(=O)(=O)c3ccccc3)cc2)c1 | inconclusive [inhibitor, single point] | –
31 | O=C(CN(Cc1ccccc1)S(=O)(=O)c1ccc2c(c1)OCCO2)N/N=C/c1ccc(F)cc1 | – | inactive: -19.5%
32 | CN(C)c1ccc(-c2cncnc2Nc2ccc(F)cc2)cc1 | inconclusive [inhibitor, single point] | –
33 | c1ccc(N2CCN(c3ncnc4sc5c(c34)CCC5)CC2)cc1 | active: 20.6 µM | –
34 | CC(C)CCC(CCN1CCOCC1)c1ccc2c(c1)OCO2 (stereo unspecified) | inconclusive [inhibitor, single point] | –
35 | O=C(CSc1nnc(-c2ccc(F)cc2)c2ccccc12)Nc1c(F)cccc1F | inconclusive [inhibitor, single point] | –
36 | O=C(N/N=C/c1cc(Br)c(Br)o1)C(O)c1ccccc1 (stereo unspecified) | inconclusive [inhibitor, single point] | –
37 | COc1cccc(Cn2c(=O)n(-c3ccc(C)c(F)c3)c(=O)c3sc4ccccc4c32)c1 | inconclusive [inhibitor, partial curve] | –
38 | Cc1ccc(S(=O)(=O)N2C[C@@H](C)[C@]3(C2)[C@H](O)[C@H](OC(=O)NC2CCCC2)C[C@H]2C(=O)N(c4ccccc4)C(=O)[C@H]23)cc1 | inconclusive [inhibitor, single point] | –
39 | C=C1C(O)[C@@H]2O[C@]3(CC[C@H](/C=C/C(C)[C@@H]4CC(C)=CC5(O[C@H](C[C@@](C)(O)CO)CCC5O)O4)O3)CC[C@H]2O[C@@H]1C(O)CC(C)[C@H]1OC2(CCCCO2)CCC1C (stereo partly specified) | active: 3.26 µM | –
40 | O=C(NCc1ccccc1Cl)C1CCC(CNS(=O)(=O)c2ccc(Cl)cc2)CC1 (stereo unspecified) | – | inactive: -12.5%
41 | COc1ccc(-c2cc(=S)ss2)cc1 | inconclusive [inhibitor, single point] | –

From PubChem BioAssay AID686978 (National Center for Advancing Translational Sciences (NCATS), 2013)
